Substitutions are numbered along the chain they refer to. These are yes or no findings as the source states them, for the method shown. In cells and extracts the contact can be indirect. Tags and fused reporters may be left off the sequences shown.
Columns and labels:
[1] = molecular target: T1, GFP-4E-T Y30A LL35/36AA (human) (UniProt Q9NRA8); assay: pull-down; GFP-Trap magnetic beads with 1 mg lysate of cells transfected with GFP-4E-T, NET buffer (50 mM Tris-HCl pH 7.5, 150 mM NaCl, 1 mM EDTA, 0.5% Nonidet P-40, 0.25% gelatin), 1.25 h at 4°C; western blotting with eIF4E1, eIF4E2 and 4E-T antibodies
T1 sequence: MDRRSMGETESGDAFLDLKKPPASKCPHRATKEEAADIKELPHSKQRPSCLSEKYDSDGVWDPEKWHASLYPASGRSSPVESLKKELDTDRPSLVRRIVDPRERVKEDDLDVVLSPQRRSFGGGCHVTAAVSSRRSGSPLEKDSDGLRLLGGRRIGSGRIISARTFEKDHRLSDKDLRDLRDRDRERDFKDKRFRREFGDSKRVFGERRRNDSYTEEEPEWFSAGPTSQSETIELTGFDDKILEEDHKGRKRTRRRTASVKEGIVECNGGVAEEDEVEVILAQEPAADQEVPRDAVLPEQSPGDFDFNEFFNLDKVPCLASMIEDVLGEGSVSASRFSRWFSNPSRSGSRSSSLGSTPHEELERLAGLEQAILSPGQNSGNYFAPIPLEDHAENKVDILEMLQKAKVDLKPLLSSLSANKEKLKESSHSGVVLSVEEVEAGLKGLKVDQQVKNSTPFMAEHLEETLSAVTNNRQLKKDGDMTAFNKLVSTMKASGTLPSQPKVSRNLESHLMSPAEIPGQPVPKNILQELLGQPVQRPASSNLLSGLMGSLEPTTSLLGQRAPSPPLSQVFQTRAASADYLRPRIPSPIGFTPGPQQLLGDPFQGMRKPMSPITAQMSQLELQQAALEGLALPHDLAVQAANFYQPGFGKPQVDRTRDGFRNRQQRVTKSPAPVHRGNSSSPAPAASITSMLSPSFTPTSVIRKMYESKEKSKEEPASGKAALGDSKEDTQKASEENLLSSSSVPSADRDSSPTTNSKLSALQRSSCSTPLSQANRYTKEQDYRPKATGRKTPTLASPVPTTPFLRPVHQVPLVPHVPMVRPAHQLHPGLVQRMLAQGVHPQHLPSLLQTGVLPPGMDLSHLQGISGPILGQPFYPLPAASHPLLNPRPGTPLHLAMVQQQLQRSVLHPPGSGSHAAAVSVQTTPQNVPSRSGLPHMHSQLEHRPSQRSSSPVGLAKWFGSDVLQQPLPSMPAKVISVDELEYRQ

The chains behind the UniProt entries cited, without tags or fusion partners.
UniProt P06730: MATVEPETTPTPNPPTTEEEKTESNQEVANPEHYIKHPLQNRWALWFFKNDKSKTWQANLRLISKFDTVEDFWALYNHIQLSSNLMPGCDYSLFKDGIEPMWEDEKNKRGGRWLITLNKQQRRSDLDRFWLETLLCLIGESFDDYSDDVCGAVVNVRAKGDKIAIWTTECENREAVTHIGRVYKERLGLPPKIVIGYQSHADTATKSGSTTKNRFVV
UniProt O60573: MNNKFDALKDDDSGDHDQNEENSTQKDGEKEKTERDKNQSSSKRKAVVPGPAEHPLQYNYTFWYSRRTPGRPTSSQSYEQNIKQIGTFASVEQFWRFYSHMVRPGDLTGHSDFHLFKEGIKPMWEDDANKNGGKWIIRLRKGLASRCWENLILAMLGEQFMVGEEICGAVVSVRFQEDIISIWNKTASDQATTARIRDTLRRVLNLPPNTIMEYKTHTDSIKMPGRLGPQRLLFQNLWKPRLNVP

GFP-4E-T Y30A (human) = molecular target: T2, GFP-4E-T Y30A (human) (UniProt Q9NRA8); assay: as above
T2 sequence: T1 sequence with A35L, A36L

Row | Substance | binding [1] | binding (GFP-4E-T Y30A (human))
1 | eIF4E1 (endogenous) (from UniProt P06730 1-217) | no binding | no binding
2 | eIF4E2 (endogenous) (from UniProt O60573 1-245) | no binding | no binding
